“And” between values parts separate entries of the source, which are not always exact repeats. Equal entries are not always repeated. The whole screen tested about 48,000 compounds, of which about 1,200 (2.5%) were called active. Roughly 2% stayed inconclusive and do not appear here.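 The calls were made as follows: active = activation of at least 60% and not above a set upper limit (about 1 call in 100 departs from these limits); inconclusive = activation of 40% to 60%, or above that upper limit; inactive = activation under 40%.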 Some of the results follow.
The compounds below were run against Probable G-protein coupled receptor 32 (Homo sapiens) (UniProt O75388) (assay: qHTS for Agonists of Human Resolvin D1 Receptor DRV1). Settings: CHO-K1 GPR32 beta-arrestin PathHunter luminescence, 90 min; at 76.9 µM; stronger effect = higher value; zero percent set by DMSO-only wells.
Chain of UniProt O75388 (O75388 whole entry, looked up): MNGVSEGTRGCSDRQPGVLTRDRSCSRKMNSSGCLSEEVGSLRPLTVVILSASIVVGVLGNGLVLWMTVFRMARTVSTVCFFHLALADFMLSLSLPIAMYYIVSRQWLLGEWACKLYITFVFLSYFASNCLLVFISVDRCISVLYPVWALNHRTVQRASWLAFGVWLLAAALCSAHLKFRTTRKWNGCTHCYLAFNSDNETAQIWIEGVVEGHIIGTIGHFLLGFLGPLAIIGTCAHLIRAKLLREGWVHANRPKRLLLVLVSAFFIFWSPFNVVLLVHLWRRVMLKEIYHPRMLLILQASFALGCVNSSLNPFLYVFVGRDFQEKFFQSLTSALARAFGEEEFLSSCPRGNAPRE
Method in brief: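 Beta-arrestin recruitment read-out: luminescence from complemented beta-Gal in CHO-K1 GPR32 PathHunter cells, measured 1 h after detection reagent at ambient temperature following 90 min compound exposure at 37 °C; DMSO served as basal (EC0) control.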
Also: 0% is about no effect.

activation, inactive:
OC(CN1CCC(Cc2ccc(F)cc2)CC1)c1ccc(Cl)cc1 (stereo not drawn) -27.8% and 5.17%
Cc1cccc(Oc2ccc(NC(=O)CCC(=O)OCC(=O)c3ccc(Br)cc3)cc2)c1C -44.2%
Cc1ccc(C)c(CSc2cn(CCNC(=O)c3ccccc3F)c3ccccc23)c1 -0.805%
COc1cccc(C(C(=O)NCc2ccccc2)N(C(=O)Cn2nnc3ccccc32)c2cccc(C(C)=O)c2)c1 (stereo not drawn) -18.6%
COc1ccc(NC(=O)c2oc3ccc(S(=O)(=O)N4CCC5(CC4)OCCO5)cc3c2C)cc1Cl 5.95%
COc1ccc(Cc2c(C)nn(-c3nc(C)c(C(=O)Nc4ccc(C)cc4C)s3)c2C)cc1 -4.43%
COc1cc(C2c3c(-c4ccccc4O)n[nH]c3C(=O)N2CCO)ccc1OCC(C)C (stereo not drawn) -7.99%
Nc1c(C(=O)Nc2ccccc2Cl)nnn1Cc1cccc(Cl)c1 35.9%
COc1cc(OC)cc(-c2nc3nc(C)c(CCC(=O)Nc4ccc(C)cc4)c(C)n3n2)c1 15%
Cc1ccc(NCc2nc3ccccc3n2CCOc2ccccc2C)cc1 -12.1%
COc1ccc(NC(=O)Nc2cccc(C)n2)c(OC)c1 -1.68%
Cc1c2cnn(CC(=O)O)c(=O)c2c(C)n1Cc1cccc(Cl)c1 -26.6%
O=C(CC1N=C2c3ccccc3N=C(SCc3ccc(Cl)cc3)N2C1=O)NC1CCCCC1 (stereo not drawn) -15%
Cc1cc2c(cc1S(=O)(=O)CCC(=O)Nc1ccc(OC(F)(F)F)cc1)OCC(=O)N2 23.2%
COC(=O)c1cc(NC(=O)c2cnc(SC)nc2-c2ccccc2)cc(C(=O)OC)c1 -20%
Cc1c(CCNS(=O)(=O)c2ccccc2)sc2nc(-c3ccc(Cl)cc3)nn12 32.2%
CCNc1nc2c(c(=O)n(C)c(=O)n2C)n1CC(O)COc1ccccc1 (stereo not drawn) -4.83%
CC(=O)Oc1c(C)c(C)c2c(c1C)CC[C@@](C)(CCC[C@H](C)CCC[C@H](C)CCCC(C)C)O2 0.0002%
Cc1ccc(-c2cnc(NCc3ccc(C(C)C)cc3)n2C)cc1 -44.5%
O=C(NCc1cccc(Br)c1)c1ccc(-n2cnc3cccnc32)cc1 -17.9%
CCOc1ccc(S(=O)(=O)c2cn(Cc3ccc(C)cc3)c3ccc(OC)cc3c2=O)cc1 -7.96%
CCOc1ccc2cc(-c3nnc(Nc4ccccc4F)s3)c(=O)oc2c1 -7.99%
Cc1ccc(CNC(=O)COCc2cc(-c3ccc4c(c3)OCO4)on2)cc1 -6.48%
COc1ccc(C(C(=O)NCc2ccccc2)N(C(=O)Cn2nnc3ccccc32)c2ccc(F)cc2)cc1 (stereo not drawn) -15.5%
Cc1cccc(-c2noc(CNC(=O)c3ccc(C)cc3C)n2)c1 8.43%
Cc1ccc(-n2ncc3c(N4CCC(C)CC4)ncnc32)cc1C 18.8%
COc1ccc(NCc2nc3ccccc3n2CCOc2ccc(C)cc2)cc1 1.19%
Cc1ccc(Cl)cc1N1CCN(C(=O)c2cn(C)c3ccc(S(=O)(=O)N4CCC(C)CC4)cc3c2=O)CC1 -6.35%
O=C(NCC(c1ccc(Cl)cc1)N1CCCCC1)c1ccccc1 (stereo not drawn) -16.8%
CCCOc1ccc(C(=O)N(Cc2cccs2)C2CCS(=O)(=O)C2)cc1 (stereo not drawn) -0.228%
Cc1cccc(NC(=O)c2ccc(F)c(S(=O)(=O)N(C)C3CCCCC3)c2)c1 -21.9%
CC(=O)Nc1ccc(Nc2nc3ccc(C)cc3n3nnnc23)cc1 36.7%
CCOCCCNC(=O)C(c1ccc(Cl)cc1)N(Cc1ccc2c(c1)OCO2)C(=O)c1ccccc1O (stereo not drawn) 1.86%
COc1ccc(NC(=O)C(C)n2nc(C)c3c(C)n(-c4ccccc4)nc3c2=O)cc1Cl (stereo not drawn) -12.4%
Cc1ccc(C)c(OCCCn2c(-c3ccc(Cl)cc3)nc3ccccc3c2=O)c1 14.4%
COc1ccc(-c2nc(S(=O)(=O)c3ccccc3)c(N3CCCCC3)o2)cc1 -6.81%
CCN(Cc1nc(-c2ccc(OC)cc2)oc1C)S(=O)(=O)c1ccc(Cl)cc1 -7.83%
COc1ccc(N2CCN(C(=O)c3cccn4c(=O)c5ccc(Cl)cc5nc34)CC2)cc1 -12.6%
CCN1C(=O)c2ccccc2Sc2ccc(NC(=O)Nc3ccc(C(C)=O)cc3)cc21 4.76%
Cc1ccc2oc(=O)c3cnn(CC(=O)Nc4ccc(Br)cc4C)c3c2c1 4.38%
Cc1ccccc1CNCCCSc1nnnn1-c1ccccc1 0.237%
CCc1cccc(C)c1NC(=O)COCc1cc(-c2ccc3c(c2)OCO3)on1 11.3%
C[C@]12CC[C@@H]3c4ccc(O)cc4CC[C@H]3[C@@H]1CC[C@@H]2O -9%
O=C(c1ccco1)N(Cc1cccnc1)c1nc2c(F)cccc2s1 -28.2%
CC1CCCCN1C(=O)CSc1nc2ccccc2nc1Cc1ccc(Cl)cc1 (stereo not drawn) 6.05%
CCc1ccccc1NC(=O)C(=O)c1cc(C)n(-c2ccccc2F)c1C -27.3%
Cc1cc(C)c(Cn2c(C)c(CNCc3ccccc3C)c(C(=O)O)c2C)c(C)c1 11.2%
Cc1nn(CC(=O)NCc2cccc(F)c2)c(=O)c2c(C)n(-c3ccc(Cl)cc3)nc12 -13.7%
COc1ccccc1Oc1nc2c(C)cccn2c(=O)c1/C=C(\C#N)c1nc2ccccc2[nH]1 1.86%
CCOC(=O)C1=C(CN2CCN(c3cc(C)ccc3C)CC2)NC(=O)NC1c1ccccc1 (stereo not drawn) -23.4%
COc1ccc(N(C(=O)c2ccccc2C)S(=O)(=O)c2ccc(C)cc2)cc1 -13.3%
Cc1ccc2c(c1)c1c(c(=O)n(-c3ccccc3)c(=O)n1CC(=O)NCCC1=CCCCC1)n2C -7.3%
CC1CN(C(=O)CCC(=O)NCc2cccs2)c2cc(Cl)ccc2O1 (stereo not drawn) -23.6%

Source: PubChem BioAssay AID1346428 (National Center for Advancing Translational Sciences (NCATS), 2018)
